Test results: PubChem BioAssay AID2451 (National Center for Advancing Translational Sciences (NCATS), 2010)
Hit rate of the full screen: of about 290,000 compounds, about 2,100 (0.72%) were called active. The shares of active, inactive and inconclusive entries below differ from those in the screen. Calls come from the whole dose curve; as a rule, active = well fitted inhibition curve with a large enough effect; inconclusive = small, poorly fitted or top-dose-only effect, or effect the other way; inactive = flat fitted curve, though single readings scatter. Potencies beside an inconclusive call are fits to weak or partial responses and may not hold up.
Note: nearly all actives have a fitted effect of over 55% in size.
Potency is the fitted concentration of half-maximal effect; tags give direction and shape of the fitted curve.

What follows are compounds tested against Fructose-bisphosphate aldolase (Giardia intestinalis (strain ATCC 50803 / WB clone C6)) (UniProt A8B2U2) (assay: qHTS Assay for Inhibitors of Fructose-1,6-bisphosphate Aldolase from Giardia Lamblia). Conditions: purified Giardia FBPA; series mostly up to 59.6 µM.
Chain of UniProt A8B2U2 (A8B2U2 whole entry, looked up): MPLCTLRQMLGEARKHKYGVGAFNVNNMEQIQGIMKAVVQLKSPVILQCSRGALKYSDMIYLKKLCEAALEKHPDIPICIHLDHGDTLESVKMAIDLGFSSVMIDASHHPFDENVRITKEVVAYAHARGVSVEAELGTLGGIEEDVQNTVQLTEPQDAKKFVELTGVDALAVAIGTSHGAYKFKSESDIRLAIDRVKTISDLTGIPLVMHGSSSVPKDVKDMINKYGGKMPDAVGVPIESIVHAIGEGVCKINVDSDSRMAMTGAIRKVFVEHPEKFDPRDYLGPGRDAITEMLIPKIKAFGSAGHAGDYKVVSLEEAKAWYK
Summary of the method: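 Giardia FBPA (40 nM reagent) was preincubated 10 min at RT with compound (up to 57.5 uM final), then substrate plus GAPDH/TPI/NAD/arsenate coupling system with diaphorase/resazurin was added; resorufin fluorescence (525/598 nm) was read after 20 min.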
In the case of `C=CCn1c(O)c(/C=N/NC(=O)CCCC)c(=O)[nH]c1=S`, the Potency is reported as active: 7.06 µM.
For `COc1cc(CN2CCN(C(=O)c3cccc4ccccc34)CC2)cc(OC)c1O`, the Potency was inconclusive: 28.2 µM [inhibitor, partial curve].
In the case of `O=C(CC1Sc2ccccc2NC1=O)c1ccc(Br)cc1` (stereo not drawn), the Potency is reported as “inactive”.
`Cc1cc2ccccn2c1C(C[N+](=O)[O-])c1ccc(N(C)C)cc1` (stereo not drawn) was tested, and the Potency was inconclusive: 8.89 µM [inhibitor, partial curve].
With `COc1ccccc1OCC(=O)Nn1c(=S)[nH]c2ncccc2c1=O` the Potency was inconclusive: 2.51 µM [inhibitor, partial curve, poor fit].
`CC(=O)c1sc(NC(=O)COc2ccc(Cl)cc2Cl)nc1C` was tested, and the Potency was “inactive”.
For `O=C(O)c1ccc2nc(-c3ccco3)c(-c3ccco3)nc2c1`, the Potency was active: 6.29 µM.
`CC(C)N(CC#CCC(O)(c1ccccc1)C1CCCC1)CCO` (stereo not drawn) was tested, and the Potency was active: 9.98 µM.
In the case of `CCc1ccc(CN2CCSCC2)cc1`, the Potency is reported as inconclusive: 25.1 µM [inhibitor, single point].
With `COC(=O)C1=C(C)Nc2[nH]c(=S)[nH]c(=O)c2C1c1ccc(OC)cc1` (stereo not drawn) the Potency was inconclusive: 6.29 µM [inhibitor, single point].
In the case of `Clc1cccc(CNCCCSc2ncccn2)c1`, the Potency is reported as inconclusive: 15.8 µM [inhibitor, partial curve].
In the case of `Cc1cccc(CN2CCN(C(=O)c3cccc4ccccc34)CC2)c1`, the Potency is reported as inconclusive: 12.6 µM [inhibitor, partial curve].
With `NNc1ccc2nncn2n1` the Potency was inconclusive: 22.3 µM [inhibitor, single point].
`Cc1cccc(OCC(O)CN2CCN(c3ccccn3)CC2)c1C` (stereo not drawn) was tested, and the Potency was inconclusive: 25.1 µM [inhibitor, single point].
With `CCOC(=O)c1ccc(NC(=O)c2nc[nH]c2C(=O)N[C@@H](CC(C)C)C(=O)OCc2ccccc2)cc1` the Potency was inconclusive: 15.8 µM [inhibitor, single point].
`O=C(/C=C/c1ccccc1)Nc1cc(NC(=O)/C=C/c2ccccc2)cc(C(=O)O)c1` was tested, and the Potency was “inactive”.
In the case of `COc1ccc(CNC(c2ccccc2)c2ccc(Cl)cc2)cc1` (stereo not drawn), the Potency is reported as inconclusive: 25.1 µM [inhibitor, partial curve].
With `CCCc1nnc(NC(=O)C(=O)NCCN(C)C)s1` the Potency was inconclusive: 5 µM [inhibitor, partial curve].
For `O=S(=O)(c1ccccc1)N1CCN=C1SCc1ccccc1Cl`, the Potency was inconclusive: 15.8 µM [inhibitor, partial curve].
With `Cc1cccc(NC(=O)CSc2ncnc3sc(C)cc23)c1` the Potency was “inactive”.
`CC1(C)CC(=O)C2=C(C1)Nc1ccccc1NC2c1nc2ccccc2[nH]1` (stereo not drawn) was tested, and the Potency was inconclusive: 22.3 µM [inhibitor, single point].
For `Cc1nnc(C)n1/N=C/c1cc(Br)cc(Br)c1O`, the Potency was inconclusive: 15.8 µM [inhibitor, single point].
For `Nc1cccc(B(O)O)c1`, the Potency was “inactive”.
With `O=C(O)c1ccc(N=Nc2c(O)ccc3ncccc23)cc1` the Potency was inconclusive: 17.8 µM [inhibitor, single point].
With `CN(C)C1C(=O)C(C(N)=O)=C(O)[C@@]2(O)C(=O)C3=C(O)c4c(O)cccc4[C@@](C)(O)C3CC12` (stereo partly drawn) the Potency was inconclusive: 11.2 µM [inhibitor, partial curve].
In the case of `CCn1nnnc1SCC(=O)Nc1nnc(C(C)C)s1`, the Potency is reported as inconclusive: 25.1 µM [inhibitor, single point].
For `c1ccc(-c2nc3nonc3c3nc4ccccc4n23)cc1`, the Potency was “inactive”.
With `COc1ccc(C2C(C#N)=C(N)N(c3cccnc3)C3=C2C(=O)CC(C)(C)C3)cc1OC` (stereo not drawn) the Potency was active: 14.1 µM.
`COC(=O)C1=C(C)Nc2ccc(C)cc2S1` was tested, and the Potency was inconclusive: 17.7 µM [inhibitor, partial curve].
In the case of `O=C(c1cccs1)N1CCN(C(=O)C2CCCO2)CC1` (stereo not drawn), the Potency is reported as “inactive”.
In the case of `Cc1cccc(C(=O)Nc2cccc(C(=O)N/N=C/c3ccncc3)c2)c1`, the Potency is reported as “inactive”.
In the case of `CCn1nc(C)cc1-c1n[nH]c(=S)n1N`, the Potency is reported as active: 7.06 µM.
In the case of `COc1cc(=O)n(C)c2c(O)cccc12`, the Potency is reported as inconclusive: 3.15 µM [inhibitor, full curve].
`Cc1ccc(C2/C(=C(/O)c3ccc(Br)cc3)C(=O)C(=O)N2Cc2ccco2)o1` (stereo not drawn) was tested, and the Potency was active: 19.9 µM.
With `Cc1ccccc1-n1ncc2c(SCC(=O)NCc3cccs3)ncnc21` the Potency was “inactive”.
For `O=[N+]([O-])c1ccc(C=Nc2ccc(Cl)cc2Cl)s1`, the Potency was inconclusive: 17.7 µM [inhibitor, partial curve].
With `CN1CC(C(=O)O)Cc2c1ccc1ccccc21` (stereo not drawn) the Potency was active: 9.98 µM.
With `O=C(CCNC(=O)c1ccc([N+](=O)[O-])cc1)NCCc1ccccc1` the Potency was “inactive”.
With `CC(=O)n1cc([C@@H]2C=C(C(=O)NCc3ccccc3)O[C@H](OCc3ccc(CO)cc3)C2)c2ccccc21` the Potency was inconclusive: 44.6 µM [inhibitor, single point].
For `COc1ccc(Cn2c(CCC(=O)Nc3ccccc3OC)nc3cccnc32)cc1`, the Potency was inconclusive: 15.8 µM [inhibitor, single point].
In the case of `C=CCN(CC=C)S(=O)(=O)c1ncn[nH]1`, the Potency is reported as inconclusive: 7.06 µM [inhibitor, partial curve].
In the case of `c1ccc2cc(OCCCn3ccnc3)ccc2c1`, the Potency is reported as active: 22.4 µM.
`Fc1ccc(C2CC(c3ccco3)=Nc3ccccc3S2)cc1` (stereo not drawn) was tested, and the Potency was inconclusive: 22.3 µM [inhibitor, single point].
In the case of `Cc1ccc(C2NC(=O)c3c(sc4c3CCN(C)C4)N2)s1` (stereo not drawn), the Potency is reported as inconclusive: 17.7 µM [inhibitor, partial curve].
With `CC(C)(C)c1ccc(C(=O)Nc2ccc(C(=O)NCc3cccnc3)cc2)cc1` the Potency was inconclusive: 31.6 µM [inhibitor, single point].
In the case of `O=C1c2ccc3c4c(ccc(c24)C(=O)N1CCCCO)C(=O)N(CCCCO)C3=O`, the Potency is reported as inconclusive: 1.41 µM [inhibitor, full curve].
For `CC(=O)NC(=S)Nc1ccc(NC(=O)COc2ccc(Cl)cc2Cl)cc1`, the Potency was “inactive”.
With `COC(=O)c1nc2ccc(N3CCOCC3)cc2c(C)c1C(=O)OC` the Potency was active: 7.92 µM.
